Positions count from the first letter of the chain named. Some of the results follow.

Sequences and labels used below:
B1: UGCAGGG (DNA:RNA)
RNA: GGGAGACCGGAAUUCAGAUUGUCCUGCAGGGUUAAAUCCCGUCGUAGCCACCA
DNA 1: CAATCTGAATTCCGGTCTCCC
DNA 2: TGGTGGCTACGACGGGATT
B2: CGAAUGA (DNA:RNA)
RNA: B1 RNA with U25C, C27A, G29U, G31A
DNA 1: CAATCTGAATTCCGGTCTCCC
DNA 2: TGGTGGCTACGACGGGATT
B3: UCUGAUA (DNA:RNA)
RNA: B1 RNA with G26C, C27U, A28G, G29A, G30U, G31A
DNA 1: CAATCTGAATTCCGGTCTCCC
DNA 2: TGGTGGCTACGACGGGATT
B4: GUUAAUG (DNA:RNA)
RNA: B1 RNA with U25G, G26U, C27U, G29A, G30U
DNA 1: CAATCTGAATTCCGGTCTCCC
DNA 2: TGGTGGCTACGACGGGATT
B5: GGUAUGU (DNA:RNA)
RNA: B1 RNA with U25G, C27U, G29U, G31U
DNA 1: CAATCTGAATTCCGGTCTCCC
DNA 2: TGGTGGCTACGACGGGATT
B6: AGUCUCG (DNA:RNA)
RNA: B1 RNA with U25A, C27U, A28C, G29U, G30C
DNA 1: CAATCTGAATTCCGGTCTCCC
DNA 2: TGGTGGCTACGACGGGATT
B7: GCAAAGG (DNA:RNA)
RNA: B1 RNA with U25G, G26C, C27A, G29A
DNA 1: CAATCTGAATTCCGGTCTCCC
DNA 2: TGGTGGCTACGACGGGATT
B8: AACCGAG (DNA:RNA)
RNA: B1 RNA with U25A, G26A, A28C, G30A
DNA 1: CAATCTGAATTCCGGTCTCCC
DNA 2: TGGTGGCTACGACGGGATT
B9: CCGGCAA (DNA:RNA)
RNA: GGGAGACCGGAAUUCAGAUUGUCCCCGGCAAUUAAAUCCCGUCGUAGCCACCA
DNA 1: CAATCTGAATTCCGGTCTCCC
DNA 2: TGGTGGCTACGACGGGATT
B10: UUCGCCG (DNA:RNA)
RNA: B1 RNA with G26U, A28G, G29C, G30C
DNA 1: CAATCTGAATTCCGGTCTCCC
DNA 2: TGGTGGCTACGACGGGATT
B11: GUGCUUA (DNA:RNA)
RNA: B9 RNA with C25G, C26U, G28C, C29U, A30U
DNA 1: CAATCTGAATTCCGGTCTCCC
DNA 2: TGGTGGCTACGACGGGATT
B12: AAGGUUU (DNA:RNA)
RNA: B9 RNA with C25A, C26A, C29U, A30U, A31U
DNA 1: CAATCTGAATTCCGGTCTCCC
DNA 2: TGGTGGCTACGACGGGATT
B13: GUUACUC (DNA:RNA)
RNA: B9 RNA with C25G, C26U, G27U, G28A, A30U, A31C
DNA 1: CAATCTGAATTCCGGTCTCCC
DNA 2: TGGTGGCTACGACGGGATT
B14: AUUCAGG (DNA:RNA)
RNA: B1 RNA with U25A, G26U, C27U, A28C, G29A
DNA 1: CAATCTGAATTCCGGTCTCCC
DNA 2: TGGTGGCTACGACGGGATT
B15: AGUACAG (DNA:RNA)
RNA: B1 RNA with U25A, C27U, G29C, G30A
DNA 1: CAATCTGAATTCCGGTCTCCC
DNA 2: TGGTGGCTACGACGGGATT
B16: GCACGUU (DNA:RNA)
RNA: B9 RNA with C25G, G27A, G28C, C29G, A30U, A31U
DNA 1: CAATCTGAATTCCGGTCTCCC
DNA 2: TGGTGGCTACGACGGGATT
B17: CAUGACU (DNA:RNA)
RNA: B9 RNA with C26A, G27U, C29A, A30C, A31U
DNA 1: CAATCTGAATTCCGGTCTCCC
DNA 2: TGGTGGCTACGACGGGATT
B18: CAUGCCG (DNA:RNA)
RNA: B9 RNA with C26A, G27U, A30C, A31G
DNA 1: CAATCTGAATTCCGGTCTCCC
DNA 2: TGGTGGCTACGACGGGATT
B19: GAAUGCU (DNA:RNA)
RNA: B1 RNA with U25G, G26A, C27A, A28U, G30C, G31U
DNA 1: CAATCTGAATTCCGGTCTCCC
DNA 2: TGGTGGCTACGACGGGATT
B20: ACGUGUC (DNA:RNA)
RNA: B9 RNA with C25A, G28U, C29G, A30U, A31C
DNA 1: CAATCTGAATTCCGGTCTCCC
DNA 2: TGGTGGCTACGACGGGATT
B21: AAUUUCG (DNA:RNA)
RNA: B1 RNA with U25A, G26A, C27U, A28U, G29U, G30C
DNA 1: CAATCTGAATTCCGGTCTCCC
DNA 2: TGGTGGCTACGACGGGATT
B22: CCUCCGC (DNA:RNA)
RNA: B9 RNA with G27U, G28C, A30G, A31C
DNA 1: CAATCTGAATTCCGGTCTCCC
DNA 2: TGGTGGCTACGACGGGATT
B23: CACCGGU (DNA:RNA)
RNA: B1 RNA with U25C, G26A, A28C, G31U
DNA 1: CAATCTGAATTCCGGTCTCCC
DNA 2: TGGTGGCTACGACGGGATT
B24: CGAGACU (DNA:RNA)
RNA: B9 RNA with C26G, G27A, C29A, A30C, A31U
DNA 1: CAATCTGAATTCCGGTCTCCC
DNA 2: TGGTGGCTACGACGGGATT
B25: AAAGGUC (DNA:RNA)
RNA: B9 RNA with C25A, C26A, G27A, C29G, A30U, A31C
DNA 1: CAATCTGAATTCCGGTCTCCC
DNA 2: TGGTGGCTACGACGGGATT
B26: CAUUAGC (DNA:RNA)
RNA: B9 RNA with C26A, G27U, G28U, C29A, A30G, A31C
DNA 1: CAATCTGAATTCCGGTCTCCC
DNA 2: TGGTGGCTACGACGGGATT
B27: AGGGAUU (DNA:RNA)
RNA: B9 RNA with C25A, C26G, C29A, A30U, A31U
DNA 1: CAATCTGAATTCCGGTCTCCC
DNA 2: TGGTGGCTACGACGGGATT
B28: ACCUGCG (DNA:RNA)
RNA: B1 RNA with U25A, G26C, A28U, G30C
DNA 1: CAATCTGAATTCCGGTCTCCC
DNA 2: TGGTGGCTACGACGGGATT
B29: UCAUAUU (DNA:RNA)
RNA: B9 RNA with C25U, G27A, G28U, C29A, A30U, A31U
DNA 1: CAATCTGAATTCCGGTCTCCC
DNA 2: TGGTGGCTACGACGGGATT
B30: AGUCGCA (DNA:RNA)
RNA: B1 RNA with U25A, C27U, A28C, G30C, G31A
DNA 1: CAATCTGAATTCCGGTCTCCC
DNA 2: TGGTGGCTACGACGGGATT
B31: UGUUUCA (DNA:RNA)
RNA: B1 RNA with C27U, A28U, G29U, G30C, G31A
DNA 1: CAATCTGAATTCCGGTCTCCC
DNA 2: TGGTGGCTACGACGGGATT

The assay deals with T1, RBFOX1 RRM (Homo sapiens, UniProt Q9NWB1 109-208).
T1 sequence: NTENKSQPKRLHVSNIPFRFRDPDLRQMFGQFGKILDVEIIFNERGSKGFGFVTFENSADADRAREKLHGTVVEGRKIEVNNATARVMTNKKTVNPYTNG
Description: EMSA; HiTS-Eq, 1 nM pool, 10 min; buffer printed only for the single-RNA assays: 10 mM Tris pH 7.5, 150 mM NaCl, 3.4 mM EDTA, 0.001% NP-40, 30 C. As to conditions: tags: His6 N-terminal (pET28a); label: 5' 32P. Put shortly:
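Purified RbFox RRM (wild type or mutant) was equilibrated for 10 min in 50 µL with 1 nM of a 5′-radiolabelled pool of RNA with 7 randomized nucleotides, its flanks annealed to DNA oligonucleotides, across increasing protein concentrations. Free RNA was separated by 8% native PAGE, excised, reverse-transcribed, PCR-barcoded and sequenced on an Illumina HiSeq 2500. Relative association constants came from read-count changes of each variant against the control reaction, normalised to the cognate motif.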
In the case of B1, the binding signal is 0.0139 KA relative to UGCAUGU. To B2 belongs 0.0187 KA relative to UGCAUGU; to B3, 0.00948 KA relative to UGCAUGU. To B4 belongs 0.0118 KA relative to UGCAUGU.

In the case of B5, the binding signal is 0.0195 KA relative to UGCAUGU. For B6 the value was 0.0143 KA relative to UGCAUGU; for B7, 0.00814 KA relative to UGCAUGU; for B8, 0.00329 KA relative to UGCAUGU.

On to B9, for which the binding signal was 0.0131 KA relative to UGCAUGU.

Regarding B10, the binding signal is 0.0111 KA relative to UGCAUGU.

As for B11, the binding signal was 0.0121 KA relative to UGCAUGU.

As for B12, the binding signal is 0.00836 KA relative to UGCAUGU. To B13 belongs 0.0119 KA relative to UGCAUGU; to B14, 0.00886 KA relative to UGCAUGU; to B15, 0.00621 KA relative to UGCAUGU. Take B16: the binding signal was 0.043 KA relative to UGCAUGU. To B17 belongs 0.00478 KA relative to UGCAUGU; to B18, 0.00485 KA relative to UGCAUGU; to B19, 0.0201 KA relative to UGCAUGU. As to B20, the binding signal is 0.00964 KA relative to UGCAUGU.

As to B21, the binding signal is 0.00926 KA relative to UGCAUGU. For B22 the value was 0.00303 KA relative to UGCAUGU.

Regarding B23, the binding signal was 0.0068 KA relative to UGCAUGU.

Turning to B24, the binding signal was 0.00854 KA relative to UGCAUGU. For B25 the value was 0.00765 KA relative to UGCAUGU; for B26, 0.00445 KA relative to UGCAUGU; for B27, 0.0196 KA relative to UGCAUGU.

Consider B28, for which the binding signal is 0.00833 KA relative to UGCAUGU. To B29 belongs 0.00186 KA relative to UGCAUGU; to B30, 0.0122 KA relative to UGCAUGU.

Take B31: the binding signal was 0.0152 KA relative to UGCAUGU.
